In patent US20180371095A1 (published 2018):

Biological target: T1, recombinant human Siglec-7 (rhSiglec-7)/Fc protein (human, UniProt Q9Y286 19-357, limits assumed)
T1 construct: also called Fc-tagged Siglec7 protein; human Siglec-7 Fc protein; not shown: human IgG Fc region
Assay: SPR (Biacore), Fc-tagged Siglec7 captured on Protein A/G/L CM5 chip

T1 sequence (Q9Y286 19-357 limits assumed): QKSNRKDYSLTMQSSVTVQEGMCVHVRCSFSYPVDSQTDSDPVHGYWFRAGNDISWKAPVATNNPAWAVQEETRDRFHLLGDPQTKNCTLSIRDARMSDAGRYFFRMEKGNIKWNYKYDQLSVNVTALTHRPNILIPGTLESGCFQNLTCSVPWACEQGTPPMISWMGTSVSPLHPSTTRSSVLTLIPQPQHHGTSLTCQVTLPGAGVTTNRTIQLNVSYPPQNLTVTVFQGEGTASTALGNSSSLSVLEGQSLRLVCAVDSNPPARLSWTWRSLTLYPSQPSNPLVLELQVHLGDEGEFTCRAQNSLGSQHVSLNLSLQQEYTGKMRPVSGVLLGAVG

- Kd: 29.7 nM
B1: soluble his-tagged VSIG-4 recombinant protein (receptor)
chain: not shown
notes: not shown: His tag
